# From PubChem BioAssay AID1688 (National Center for Advancing Translational Sciences (NCATS), 2009)
# In all, about 220,000 compounds went through this assay and about 2,400 (1.1%) were called active. Roughly 7% stayed inconclusive and do not appear here. Calls follow the shape of the dose curve; as a rule, active = well fitted inhibition curve with a large enough effect; inconclusive = small, poorly fitted or top-dose-only effect, or effect the other way; inactive = no such curve, though single readings can be large or run the other way. Only a part is listed here, and it is no random draw. More than one record can exist for a structure, and the calls need not agree.
# Assay: qHTS Multiplex Assay to Identify Dual Action Probes in a Cell Model of Huntington: Aggregate Formation (GFP); also: nearly all actives have a fitted effect of over 60% in size
# Details: PC12 HttQ103-GFP aggregates, Acumen cytometry, 40 h; series mostly up to 46.1 µM; activity change, negative = inhibition: at the top concentration
# Excerpt: NIH Chemical Genomics Center [NCGC]
# NIH Molecular Libraries Probe Production centers Network [MLPCN]
# Assay Submitter (PI): Wei Zheng
# Huntington's disease is a neurodegenerative disorder caused by a trinucleotide repeat expansion in Exon 1 of the Huntingtin gene. The CAG trinucleotide encodes glutamine and polyglutamine expansions cause cell death in selective areas of the brain. Huntington polyglutamine repeats have the tendency to form aggregates which are observable in later stages of the disease. The exact nature of the aggregates, whether toxic, protective, or insignificant, is unclear.
# A stable PC12 cell line containing a gene fusion of Exon 1 of the Huntingtin gene linked to GFP under the control of the inducible ecdysone promoter were used as the cell-based model of Huntington Disease for high throughput screening. Exon 1 of the Huntingtin gene contained an expansion of 103 polyglutamines (Q103) which, when expressed, caused cell death and distinct, bright GFP aggregates. The amount of cell death and the size and intensity of GFP aggregates increased over time and induction level. The cell death were quantified with a measurement of ATP content in the cells. A maximal 40-50% of cell death was observed when the Huntington gene was induced in this cell line.
# We optimized this assay in a homogeneous 1536 well format. A quantitative high throughput screen (qHTS) was conducted on the PC12 cells which were induced to express the toxic fusion construct. Small molecules which reduced aggregate formation were identified bu using a laser scanning cytometer calibrated to detect the aggregates in cell lysates.
# PC12 cells stably containing a construct with an ecdysone inducible promoter expressing GFP fused to the exon 1 of HTTQ103 (Huntington protein which containing a 103 ployglutamine expansion) were used.
# NCGC Assay Protocol Summary:
# Sequence, Parameter, Description
# 1, Reagent, 5 uL 1500 cells/well 1536 TC treated White clear bottom plate
# 2, Compound, 23 nL Tebufenozide inducer (100 nM final) to all columns
# 3, Compound, 23 nL 40 uM to 0.5 nM Libraries
# 5, Reagent, 5 ul ATPLite cell death assay reagent
# 6, Detector, Aggregate quantitation by Acumen Explorer
# Media consisted of phenol red free DMEM + 5% equine serum (Hyclone # SH30072.03 ), 5% supplemented Bovine Calf Serum (Hyclone # SH30074.03 ), 1x pen/strep, no G418
# Acumen Explorer was used to quantitate GFP aggregates using the following criteria: […] laser excitation, 500-530 nm emission, the PMT was set at a voltage of 450 volts, and objects ranging in size of […] in size having a signal of 6 STDEV above background were collected.
# Control columns: 1 = DMSO, 2= 2 uM teb dilns (1:1), 4 = 100 nM Teb inducer. Sample columns received 100 nM Teb.
# % is scaled to controls: 0 for no effect and ±100 for the full control effect; potency is read from the fitted curve at half-maximal effect.
Compound,"activity change, negative = inhibition",Potency
O=C1/C(=C\c2ccco2)SC(=S)N1C1CCS(=O)(=O)C1 (configuration not stated),inactive: 6.27% [at 9.22 µM],–
CN(C)c1ccc2nc3ccc(=[N+](C)C)cc-3sc2c1,inactive: -43.1%,–
COc1ccc(/C=C/c2cc(-c3ccc(C)cc3)o[n+]2C)cc1,–,active: 4.47 µM
CN1CCc2cccc3c2[C@H]1Cc1ccc(O)c(O)c1-3,inactive: 22.5%,–
COC(=O)/C=C1\N/C(=N\c2nc(C)cc(C)n2)N(c2ccc(Cl)cc2)C1=O,inactive: -1.79% [at 9.22 µM],–
COC(C[C@@H]1O[C@H]1[C@@H](O)[C@@H](C)OCc1ccccc1)OC,inactive: 0.599% [at 9.22 µM],–
Cc1sc(N2C(=O)C3C(C2=O)[C@H]2C=C[C@@H]3C2)c(C#N)c1C (some centres not stated),inactive: -9.84% [at 9.22 µM],–
O=C(/C=C/c1ccccc1)Oc1cccc2cccnc12,inactive: -27% [at 9.22 µM],–
COc1cc(/C=C2\S/C(=N/S(=O)(=O)c3ccccc3)NC2=O)c([N+](=O)[O-])cc1OC,inactive: 27.1%,–
O=C(CCCc1cccs1)Nc1nc2c(s1)CCCC2,–,active: 0.0282 µM
COc1ccccc1N1CCN(CC(O)COc2cccc3ccccc23)CC1 (configuration not stated),inactive: -11.8%,–
N#C/C(=N\O)c1nc(-c2ccccc2)cs1,inactive: -17.2%,–
O=C(c1nnsc1S(=O)(=O)c1ccc(Cl)cc1)N1CCOCC1,–,active: 12.6 µM
COC(C[C@@H]1O[C@H]1[C@H](O)COCc1ccccc1)OC,inactive: 41.9% [at 9.22 µM],–
COC(C[C@H]1O[C@H]1[C@@H](O)COCc1ccccc1)OC,inactive: -2.4% [at 9.22 µM],–
O=C(O)C/C=C(\NC(=O)OCc1ccccc1)C(=O)OCc1ccccc1,inactive: -2.1%,–
COc1cc(NCCCC(C)N)c2ncccc2c1 (configuration not stated),inactive: 4.99%,–
CCC(=O)N1Cc2ccccc2-c2ccccc2C1=O,–,active: 5.62 µM
COc1ccc(Cc2c(O)nc(SCC(=O)NC34CC5CC(CC(C5)C3)C4)[nH]c2=O)cc1,inactive: -1.34% [at 9.22 µM],–
O=C(N/N=C/c1c(O)n(-c2ccccc2Cl)c(=O)c2ccccc12)C1COc2ccccc2O1 (configuration not stated),–,active: 12.6 µM
CN1/C(=C/C=C(C#N)C#N)C(C)(C)c2ccccc21,inactive: 16.6% [at 9.22 µM],–
O=C(NN1C(=O)/C(=C/c2cccnc2)SC1=S)C(c1ccccc1)c1ccccc1,inactive: 4.2%,–

Compound,"activity change, negative = inhibition",Potency
O=C1C(Cl)=C(Nc2ccc3cn[nH]c3c2)C(=O)c2ccccc21,–,active: 3.98 µM
COc1ccc(CCn2c(C)cc(C(=O)CSc3nc(N)cc(=O)[nH]3)c2C)cc1,–,active: 7.08 µM
O=C1S/C(=C\c2ccc(N3CCOCC3)o2)C(=O)N1Cc1c(F)cccc1Cl,inactive: 21%,–
Fc1ccc(CN(Cc2ccccc2)C(c2cccs2)c2nnnn2C2CCCCC2)cc1 (configuration not stated),–,active: 25.1 µM
O=C(NCCc1ccccc1)c1oc2ccccc2c1COc1ccccc1,–,active: 14.1 µM
O=C(NCCCNc1ccc(C(F)(F)F)cc1[N+](=O)[O-])c1ccc(Cl)cc1,–,active: 11.2 µM
COc1cc(/C=C/C(=O)CC(=O)/C=C/c2ccc(O)c(OC)c2)ccc1O,inactive: 1.34%,–
COc1ccccc1/C=C/C=N/NC(=O)c1ccco1,inactive: 2.34% [at 9.22 µM],–
COC(C[C@H]1O[C@H]1[C@H](O)[C@H](C)OCc1ccccc1)OC,inactive: 4.79% [at 9.22 µM],–
COc1ccc(/C=C/C(=O)c2c(O)ccc3c(C)cc(=O)oc23)cc1,inactive: -16.1%,–
O=C(N/N=C/C(Br)=C\c1ccccc1)c1n[nH]c2c1CCC2,inactive: 57.2%,–
Cc1ccc(C(=O)N/C(=C/C=C\c2ccccc2)C(=O)NCc2ccco2)cc1,inactive: 0.751%,–
O=C(NCc1ccc2c(c1)OCO2)c1ccc(COc2cccc(Cl)c2)o1,–,active: 28.2 µM
CCO[C@H]1OC(C(=O)NC2CC2)=C[C@@H](c2c[nH]c3ccccc23)[C@@H]1CCCO,inactive: -25.1% [at 9.22 µM],–
C/C=C(/C)C(=O)OC1c2c(ccc3ccc(=O)oc23)OC(C)(C)C1OC(=O)/C(C)=C\C (configuration not stated),inactive: 22.6% [at 9.22 µM],–
COC(C[C@H]1O[C@H]1[C@H](O)COCc1ccccc1)OC,inactive: -44.3% [at 9.22 µM],–
CC(NO)C(C)(C)NO (configuration not stated),inactive: 9.92%,–
O=C(O)CCn1cc(/C=C/C(=O)c2ccc(Cl)cc2)c(-c2cccc(Br)c2)n1,inactive: -3.24% [at 9.22 µM],–
CCc1ccc(/C=c2\s/c(=C\C(=O)C(C)(C)C)[nH]c2=O)cc1,–,active: 14.1 µM
COC(C[C@H]1O[C@@H]1[C@@H](O)COCc1ccccc1)OC,inactive: 15% [at 9.22 µM],–
CC(=O)Nc1nc(C)c(-c2csc(Nc3ccccn3)n2)s1,inactive: -29.7% [at 9.22 µM],–
N=C(N)SCc1nc2ccccc2c(=O)n1-c1ccccc1,inactive: 26%,–

Compound,"activity change, negative = inhibition",Potency
C[C@@H]1CCC[C@H](C)N1NC(=O)c1ccc(Cl)c(S(N)(=O)=O)c1,–,inactive
O=c1c2c(nc3c(-c4cccc(Br)c4)c[nH]n13)CCCC2,–,active: 3.55 µM
CC#C[C@]1(O)CC[C@H]2[C@@H]3CCC4=CC(=O)CCC4=C3[C@@H](c3ccc(N(C)C)cc3)C[C@@]21C,inactive: -66.6%,–
Cc1ccc(F)c(C2C3C=CCC(c4cccc(-c5ccc(N(C)C)cc5)c4)C3C(=O)N2Cc2ccccc2)c1 (configuration not stated),–,active: 3.16 µM
COC(=O)/C=C1\N/C(=N\c2nc(C)cc(C)n2)N(c2ccccc2)C1=O,inactive: 23.6% [at 9.22 µM],–
CC(C)(C)[C@]1(O)CCN2CC3c4ccccc4CCc4cccc(c43)[C@@H]2C1 (some centres not stated),inactive: -17.7%,–
COc1ccc(-c2nn(-c3ccccc3)cc2/C=C(\C#N)C(N)=O)cc1[N+](=O)[O-],inactive: 17.3%,–
CCOC(=O)N1CCN(C(=O)/C(=C/c2cccs2)NC(=O)c2cccs2)CC1,inactive: -0.565% [at 9.22 µM],–
Cc1ccc(-c2nn(-c3ccccc3)cc2/C=N/NC(=O)c2ccc(Br)o2)cc1,–,active: 7.08 µM
COC(C[C@@H]1O[C@@H]1[C@@H](O)[C@@H](C)OCc1ccccc1)OC,inactive: -7.78% [at 9.22 µM],–
CN1CCN2c3ccccc3Cc3ccccc3C2C1 (configuration not stated),inactive: -15.3%,–
COC(C[C@H]1O[C@H]1[C@@H](O)[C@@H](C)OCc1ccccc1)OC,inactive: 23.4% [at 9.22 µM],–
O=C(NN1C(=O)C2C3c4ccccc4C(c4ccccc43)C2C1=O)c1ccccc1 (configuration not stated),inactive: -3.34%,–
COc1ccccc1NS(=O)(=O)c1cc(NC(=O)c2ccc(Cl)nc2)ccc1Cl,–,active: 25.1 µM
CC(=O)N=c1sc(S(N)(=O)=O)nn1C,inactive: 4.56% [at 20.6 µM],–
CCC(=O)N1c2ccccc2C(N(C(C)=O)c2ccccc2)CC1C (configuration not stated),inactive: 5.68%,–
COc1ccccc1/C=C/C=N/n1c(-c2ccc(Cl)cc2Cl)n[nH]c1=S,inactive: -5.96% [at 9.22 µM],–
C[C@@H](C(=O)Nc1ccc2ccccc2c1)[C@@H]1C[C@@]1(C)[C@@H](NC(=O)c1cccnc1)c1ccccc1,inactive: -0.698%,–
Clc1ccc(CSc2nnc(-c3ccncc3)o2)cc1,–,active: 10 µM
CCOC(=O)C1=C(c2cccc(Oc3ccccc3)c2)NC(=S)NC1C (configuration not stated),–,active: 11.2 µM
Cn1c2c(c(=O)n(C)c1=O)C1(C(=O)Nc3ccccc31)C(C#N)=C(N)O2 (configuration not stated),inactive: -1.49%,–
O=C(O)/C=C\C(=O)NC1CCCCC1,inactive: -2.44%,–

Compound,"activity change, negative = inhibition",Potency
Cc1ccc(O)c(C(=O)c2cnn(C(=O)Cc3csc(C)n3)c2)c1,–,active: 22.4 µM
CCCCc1oc2ccccc2c1C(=O)c1cc(I)c(OCCN(CC)CC)c(I)c1,inactive: 4.39%,–
CCCC1=NN(c2ccc([N+](=O)[O-])cc2)C(=O)/C1=C\N(C)C,inactive: -5.96%,–
Cc1ccc(C(O)(C(=O)NNc2ccc3ccccc3n2)c2ccc(C)cc2)cc1,inactive: -3.63%,–
O=C(O)/C(=C\c1ccco1)NC(=O)c1ccccc1,inactive: 16.8%,–
COC(C[C@H]1O[C@@H]1[C@@H](O)[C@H](C)OCc1ccccc1)OC,inactive: 8.98% [at 9.22 µM],–
Cc1ccc(C2=N/C(=C/c3cccs3)C(=O)N2Nc2ccccc2)cc1,inactive: 12.3%,–
Cc1ccc(C(NC(=O)C(C)C)c2cc([N+](=O)[O-])c3cccnc3c2O)cc1 (configuration not stated),–,active: 20 µM
COC1=CC(=O)C[C@@H](C)[C@]12Oc1c(Cl)c(OC)cc(OC)c1C2=O,inactive: -2.14%,–
Cc1cc(C(=O)N[C@@H](c2ccccc2)[C@]2(C)C[C@H]2[C@@H](C)C(=O)Nc2ccc3ccccc3c2)no1,inactive: -15.7%,–
CCC1=C[C@@H]2CN(C1)Cc1c([nH]c3ccccc13)[C@@](C(=O)OC)(c1cc3c(cc1OC)N(C)[C@@H]1[C@@](O)(C(=O)OC)[C@H](OC(C)=O)[C@]4(CC)C=CCN5CC[C@]31[C@@H]54)C2,–,active: 5.62 µM
COc1ccc([C@@H]2Sc3ccccc3N(CCN(C)C)C(=O)[C@@H]2OC(C)=O)cc1,inactive: 15.2%,–
CCOc1ccc(N(CC(=O)Nc2ccc(C)c(C)c2)S(=O)(=O)c2c(C)noc2C)cc1,–,active: 20 µM
O=C(N/N=C/C(Cl)=C\c1ccccc1)c1cnccn1,inactive: 6.31%,–
CC(=O)Nc1ccc(NC(=O)[C@@H]2CCCC[C@@H]2C(=O)O)cc1,inactive: 9.65%,–
NS(=O)(=O)c1cc2c(cc1Cl)NC(C(Cl)Cl)NS2(=O)=O (configuration not stated),inactive: 14.2%,–
O=C(Nc1ccc(N2CCCCC2)c(Cl)c1)c1ccc(N2CCOCC2)c([N+](=O)[O-])c1,–,active: 11.2 µM
CN(C)[C@@H]1C(=O)C(C(N)=O)=C(O)[C@]2(O)C(=O)C3=C(O)c4c(O)ccc(Cl)c4[C@H](O)[C@H]3C[C@@H]12,inactive: -14.2%,–
c1ccc(N2CCN(c3ncnc4sc5c(c34)CCC5)CC2)cc1,–,active: 11.2 µM
CCN(CC)c1ccc2cc(-c3nnc(-c4ccccc4)o3)c(=O)oc2c1,–,active: 7.08 µM
C1CCC(C(CC2CCCCN2)C2CCCCC2)CC1 (configuration not stated),–,active: 25.1 µM
